Test results from PubChem BioAssay (NCATS).
The shares of active, inactive and inconclusive entries below differ from those in the screen. No potency is given beside an inconclusive call; the fits are too rough. Activity calls are given as the source filed them. Calls follow the shape of the dose curve; as a rule, active = well fitted curve in the direction sought with a large enough effect; inconclusive = small, poorly fitted or top-dose-only effect, or another doubt; inactive = no such curve, though single readings can be large; an effect the other way counts as inactive or inconclusive.

Assay: qHTS of pediatric cancer cell lines to identify multiple opportunities for drug repurposing: Primary screen for SK-N-MC cells (AID 1347093);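 as to activity change, negative = cytotoxic: plate controls were DMSO neutral control for no effect and bortezomib for full effect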
Conditions: SK-N-MC viability, CellTiter-Glo luminescence, 48 h; activity change, negative = cytotoxic: at 46 µM (top of the series)
How it was run: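 Metabolically active cells were quantified by ATP-dependent luminescence (CellTiter-Glo, 15 min at room temperature) following 48 h treatment. Cells had been plated at 500-1,000 per well and settled for 5 h beforehand.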
Potency is read from the fitted curve at half-maximal effect; tags tell the direction and shape of the fitted curve.

SMILES | Potency | activity change, negative = cytotoxic
O=C(OC1C[C@H]2CC[C@@H](C1)[N+]21CCCC1)C(O)(c1ccccc1)c1ccccc1 (stereo partly drawn) | active: 14.8 µM | 
O=C(O)C1=CC(O)C(O)[C@H](O)C1 (stereo partly drawn) | inactive | 
N#Cc1c(N(CC(=O)O)CC(=O)O)sc(C(=O)O)c1CC(=O)O | inactive | 
CC(C)C(C)C=CC(C)C1CCC2C3=CC=C4CC(O)CCC4(C)C3CCC21C (stereo not drawn) | inactive | 
CC1COc2c(N3CCN(C)CC3)c(F)cc3c(=O)c(C(=O)O)cn1c23 (stereo not drawn) | inconclusive [cytotoxic, partial curve, poor fit] | 
O=C1CCCC(=O)C1C(=O)c1ccc(C(F)(F)F)cc1[N+](=O)[O-] | inconclusive [cytotoxic, single point] | 
Cc1noc(-c2ccc(CSCCC(=O)O)cc2)c1NC(=O)OC(C)c1ccccc1Cl (stereo not drawn) | inconclusive [cytotoxic, single point] | 
COc1cc2ncnc(-n3nc(-c4ccccn4)nc3N)c2cc1OC | active: 4.69 µM | 
CCOc1cc(CC(=O)N[C@@H](CC(C)C)c2ccccc2N2CCCCC2)ccc1C(=O)O | active: 4.69 µM | 
COC(=O)N1CCN(Cc2cccc(NC(=O)Nc3ccc(C)nc3)c2F)CC1 | inactive | 
CC(C)NCC(O)COc1ccc(COCCOC(C)C)cc1 (stereo not drawn) | inactive | 
CC#CCn1c(N2CCC[C@@H](N)C2)nc2c1c(=O)n(Cc1nc(C)c3ccccc3n1)c(=O)n2C | inconclusive [cytotoxic, single point] | 
CCCN[C@H]1CCc2nc(N)sc2C1 | inconclusive [cytotoxic, single point] | inconclusive: -58% [cytotoxic]
COc1c(O)cc2c(c1O)[C@@H]1O[C@H](CO)[C@@H](O)[C@H](O)[C@H]1OC2=O | inactive | 
CC[C@H](CO)Nc1nc(NCc2ccccc2)c2ncn(C(C)C)c2n1 | inconclusive [cytotoxic, single point] | 

Assay: qHTS of pediatric cancer cell lines to identify multiple opportunities for drug repurposing: Primary screen for BT-37 cells (AID 1347094);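 as to activity change, negative = cytotoxic: plate controls were DMSO for no effect and bortezomib for full effect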
Conditions: BT-37 viability, CellTiter-Glo luminescence, 48 h; series mostly up to 57.3 µM
How it was run: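 Following a 5-hour attachment period, cells at 500-1,000/well received compounds and were cultured for 48 hours. CellTiter-Glo was added and luminescence read to estimate viable, metabolically active cells.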

SMILES | Potency
CC(C)C[C@@H](N)[C@H](O)C(=O)N[C@H](C(=O)N[C@H](C(=O)N[C@@H](CC(=O)O)C(=O)O)C(C)C)C(C)C | inactive
COc1cc(Nc2nc3ccccc3nc2NS(=O)(=O)c2ccc(NC(=O)c3ccc(C)c(OC)c3)cc2)cc(OC)c1 | inconclusive [cytotoxic, single point]
CCCc1cc(=O)[nH]c(=S)[nH]1 | inconclusive [cytotoxic, partial curve]
CN[C@H](CC(C)C)C(=O)N[C@H]1C(=O)N[C@@H](CC(N)=O)C(=O)N[C@@H]2C(=O)N[C@H]3C(=O)N[C@H](C(=O)N[C@H](C(=O)O)c4cc(O)cc(O)c4-c4cc3ccc4O)[C@H](O)c3ccc(c(Cl)c3)Oc3cc2cc(c3O[C@@H]2O[C@H](CO)[C@@H](O)[C@H](O)[C@@H]2O[C@H]2C[C@](C)(N)[C@H](O)[C@H](C)O2)Oc2ccc(cc2Cl)[C@H]1O | inactive
CC1COC2(CCN(c3nc(=O)c4cc(C(F)(F)F)cc([N+](=O)[O-])c4s3)CC2)O1 (stereo not drawn) | inactive
CCC[C@@H](NC(=O)[C@@H]1[C@H]2CCC[C@@H]2CN1C(=O)[C@@H](NC(=O)[C@@H](NC(=O)c1cnccn1)C1CCCCC1)C(C)(C)C)C(=O)C(=O)NC1CC1 | inconclusive [cytotoxic, partial curve]
COc1ccc(-n2c(C)c([N+](=O)[O-])c3ccc(O)cc32)cc1 | inconclusive [cytotoxic, single point]
COc1ccc2c(Oc3ccc(NC(=O)c4c(C)n(CC(C)(C)O)n(-c5ccccc5)c4=O)nc3)ccnc2c1 | inconclusive [cytotoxic, partial curve, poor fit]
CC=CC(=O)N(CC)c1ccccc1C | active: 30.6 µM
Cc1cnc(C(=O)NCCc2ccc(S(=O)(=O)NC(=O)NC3CCCCC3)cc2)cn1 | inconclusive [cytotoxic, partial curve]
N=C1SC(=Cc2ccc(-c3ccc4c(c3)C(=O)NC4=O)o2)C(=O)N1c1ccc(Br)cc1 | inconclusive [cytotoxic, partial curve, poor fit]
C[C@]12CC[C@@H]3c4ccc(O)cc4C[C@@H](CCCCCCCCCS(=O)CCCC(F)(F)C(F)(F)F)[C@H]3[C@H]1CC[C@H]2O (stereo partly drawn) | inconclusive [cytotoxic, partial curve, poor fit]
